Experimental data as given in the supplement of paper PMC12582362.
Counter-ions that a name gives are not always drawn. Among all 1,500 compounds or so, about 30 (2%) showed activity.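 The calls were made as follows: active = robust z-score below -2; a few such results were not called.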 The list shows a part of the results.

Each compound was assayed on optoTopBP1 Flp-In 293 T-REx (HEK293) cells (assay: light-induced TopBP1 condensate (nuclear foci) count, plate-normalised robust z-score vs non-control wells; higher = more TopBP1 condensates (negative = condensation inhibitor), active = hit call of the paper). Details: 10 µM; incubation time 2 h.

| SMILES | light-induced TopBP1 condensate (z-score) |
| --- | --- |
| O=c1oc2ccccc2c(O)c1Cc1c(O)c2ccccc2oc1=O [Dicumarol] | inactive: -0.011 |
| CC(C)NC[C@@H](O)COc1cccc2ccccc12 [(R)-Propranolol hydrochloride] | inactive: 0.474 |
| CCN(CC)CCc1nc(-c2ccccc2)no1 [Oxalamine citrate salt] | inactive: -0.151 |
| CNCC(O)c1ccc(OC(=O)C(C)(C)C)c(OC(=O)C(C)(C)C)c1 (configuration not stated) [Dipivefrin hydrochloride] | inactive: -1.55 |
| CC(C)NCC(O)c1ccc(O)c(O)c1 (single isomer, unassigned; (+)) [(+)-Isoproterenol (+)-bitartrate salt] | inactive: 0.313 |
| Cc1c(N(C)CS(=O)(=O)O)c(=O)n(-c2ccccc2)n1C [Dipyrone] | inactive: -0.0363 |
| CC(NCCC(c1ccccc1)c1ccccc1)c1ccccc1 (configuration not stated) [Fendiline hydrochloride] | active: -2.06 |
| O=c1[nH]c(=O)n(C2CCCO2)cc1F (configuration not stated) [Tegafur] | inactive: -0.488 |
| Nc1nc2n[nH]nc2c(=O)[nH]1 [Azaguanine-8] | inactive: 0.506 |
| CN(C)c1nc(N(C)C)nc(N(C)C)n1 [Altretamine] | inactive: -1.17 |
| CC(C)NCC(O)c1ccc2ccccc2c1 (configuration not stated) [Pronethalol hydrochloride] | inactive: 1.01 |
| C[C@H]1C[C@@H]2[C@H]([C@@H](O)C[C@@]3(C)[C@H]2CC[C@]3(O)C(=O)CO)[C@@]2(C)C=CC(=O)C=C12 [Methylprednisolone, 6-alpha] | inactive: -0.268 |
| CCCNCC(O)COc1ccccc1C(=O)CCc1ccccc1 (configuration not stated) [Propafenone hydrochloride] | inactive: 0.972 |
| COc1ccccc1OCC(O)CN1CCN(CC(=O)Nc2c(C)cccc2C)CC1 (configuration not stated) [Ranolazine] | inactive: 0.709 |
| COc1cc([C@@H]2c3cc4c(cc3[C@@H](O[C@@H]3O[C@@H]5CO[C@@H](C)O[C@H]5[C@H](O)[C@H]3O)[C@H]3COC(=O)[C@H]23)OCO4)cc(OC)c1O [Etoposide] | inactive: 2.81 |
| COc1ccc(C2CNC(=O)C2)cc1OC1CCCC1 (configuration not stated) [Rolipram] | inactive: -0.415 |
| Cc1c(O)c(=O)ccn1C [Deferiprone] | inactive: 0.183 |
| O=S(=O)(O)c1cc(O)ccc1O [Ethamsylate] | inactive: 1.5 |
| c1ccc([C@H]2CN3CCSC3=N2)cc1 [Levamisole hydrochloride] | inactive: 0.197 |
| CCC(=O)O[C@]1(C(=O)CCl)[C@@H](C)C[C@H]2[C@@H]3CCC4=CC(=O)C=C[C@]4(C)[C@@]3(F)[C@@H](O)C[C@@]21C [Clobetasol propionate] | inactive: 0.783 |
| CC(C)[C@H](N)C(=O)OCC(CO)OCn1cnc2c(=O)nc(N)[nH]c21 (some centres not stated) [Valganciclovir hydrochloride] | inactive: 0.111 |
| O=C1OCCN1/N=C/c1ccc([N+](=O)[O-])o1 [Furazolidone] | inactive: -0.718 |
| CCOC(=O)[C@H](CCc1ccccc1)N[C@H]1CS[C@H](c2cccs2)CN(CC(=O)O)C1=O [Temocapril] | inactive: 0.131 |

| SMILES | light-induced TopBP1 condensate (z-score) |
| --- | --- |
| CCOCC(O)COc1ccc(NC(=O)CC[S+](C)C)cc1 (configuration not stated) [Suplatast Tosylate] | inactive: 0.0275 |
| O=C(NCC(O)CO)c1c(I)c(C(=O)NCC(O)CO)c(I)c(N(CCO)C(=O)CO)c1I (configuration not stated) [Ioversol] | inactive: -0.193 |
| CO/N=C(\C(=O)N[C@@H]1C(=O)N2C(C(=O)O)=C(COC(N)=O)CS[C@H]12)c1ccco1 [Cefuroxime sodium salt] | inactive: 0.693 |
| Nc1ccc(S(=O)(=O)Nc2ccnn2-c2ccccc2)cc1 [Sulfaphenazole] | inactive: 0.611 |
| CCC(=O)c1c(O)cc(O)cc1O [Flopropione] | inactive: 0.298 |
| CC1Cc2ccccc2N1NC(=O)c1ccc(Cl)c(S(N)(=O)=O)c1 (configuration not stated) [Indapamide] | inactive: -0.829 |
| Nc1ccc2cc3ccc(N)cc3nc2c1 [Proflavine hemisulfate] | active: -6.85 |
| Cc1cc(CC(=O)O)n(C)c1C(=O)c1ccc(Cl)cc1 [Zomepirac sodium salt] | inactive: 0.572 |
| CC[C@H]1OC(=O)[C@H](C)[C@@H](O[C@H]2C[C@@](C)(OC)[C@@H](O)[C@H](C)O2)[C@H](C)[C@@H](O[C@@H]2O[C@H](C)C[C@H](N(C)C)[C@H]2O)[C@](C)(O)C[C@@H](C)[C@@H]2N[C@@H](COCCOC)O[C@H]([C@H]2C)[C@]1(C)O [Dirithromycin] | inactive: -0.572 |
| O=C1CC2(CCCC2)CC(=O)N1CCCCN1CCN(c2ncccn2)CC1 [Buspirone hydrochloride] | inactive: 0.0908 |
| Cn1cc([S+](C)[O-])c(=O)c2ccc(F)cc21 (configuration not stated) [Flosequinan] | inactive: 0.501 |
| C[C@H](O)C(=O)Nc1c(I)c(C(=O)NC(CO)CO)c(I)c(C(=O)NC(CO)CO)c1I [Iopamidol] | inactive: -0.464 |
| CC(C)CC(=O)N[C@H](C(=O)N[C@H](C(=O)N[C@@H](CC(C)C)[C@@H](O)CC(=O)N[C@@H](C)C(=O)N[C@@H](CC(C)C)[C@@H](O)CC(=O)O)C(C)C)C(C)C [Pepstatin A] | inactive: 0.721 |
| Oc1ccc(OCc2ccccc2)cc1 [Monobenzone] | active: -2.29 |
| C[C@H]1C[C@H]2[C@@H]3CCC4=CC(=O)C=C[C@]4(C)[C@@]3(F)[C@@H](O)C[C@]2(C)[C@@]1(O)C(=O)CO [Betamethasone] | inactive: 1.46 |
| CCCNC(C)(C)C(=O)Nc1ccccc1C [Quatacaine] | inactive: -0.106 |
| O=C(NCCO[N+](=O)[O-])c1cccnc1 [Nicorandil] | inactive: 0.468 |
| Cc1ccc(Cl)c(Nc2ccccc2C(=O)O)c1Cl [Meclofenamic acid sodium salt monohydrate] | inactive: -0.393 |
| C=C1/C(=C\C=C2/CCC[C@]3(C)[C@@H]([C@H](C)/C=C/[C@@H](O)C4CC4)CC[C@@H]23)C[C@@H](O)C[C@@H]1O [Calcipotriene] | inactive: -0.251 |
| COC(=O)Nc1nc2ccc(SC(C)C)cc2[nH]1 [Methiazole] | inactive: -1.27 |
| CN(C)CCOc1ccc(/C(=C(/CCCl)c2ccccc2)c2ccccc2)cc1 [Toremifene] | inactive: -1.41 |
| CCN1CCN(C(=O)N[C@@H](C(=O)N[C@@H]2C(=O)N3C(C(=O)O)=C(CSc4nnnn4C)CS[C@H]23)c2ccc(O)cc2)C(=O)C1=O [Cefoperazone dihydrate] | inactive: 0.148 |
| CC(NN)c1ccccc1 (configuration not stated) [Mebanazine] | inactive: 0.298 |

| SMILES | light-induced TopBP1 condensate (z-score) |
| --- | --- |
| CC(C(=O)O)c1ccc(N2Cc3ccccc3C2=O)cc1 (configuration not stated) [Indoprofen] | inactive: 0.0765 |
| CO[C@@]12[C@H](COC(N)=O)C3=C(C(=O)C(C)=C(N)C3=O)N1C[C@@H]1N[C@@H]12 [Mitomycin C] | inactive: -0.867 |
| CC1=Nc2ccc(Cl)cc2S(=O)(=O)N1 [Diazoxide] | inactive: 0.359 |
| Cc1cc(/C=C/c2ccc3cc(N(C)C)ccc3[n+]2C)c(C)n1-c1ccccc1 [Pyrvinium pamoate] | active: -4.74 |
| COCCOC(=O)C1=C(C)NC(C)=C(C(=O)OC/C=C/c2ccccc2)C1c1cccc([N+](=O)[O-])c1 (configuration not stated) [Cilnidipine] | inactive: 0.508 |
| CCCCNc1ccc(C(=O)OCCOCCOCCOCCOCCOCCOCCOCCOCCOC)cc1 [Benzonatate] | inactive: 0.771 |
| O=C(O)/C=C/c1ccc(Cn2ccnc2)cc1 [Ozagrel hydrochloride] | inactive: 0.593 |
| CCCc1nc(C)c2c(=O)nc(-c3cc(S(=O)(=O)N4CCN(CC)CC4)ccc3OCC)[nH]n12 [Vardenafil] | inactive: 0.348 |
| O=C(O)COC(=O)Cc1ccccc1Nc1c(Cl)cccc1Cl [Aceclofenac] | inactive: -0.0239 |
| Cc1cnc(NC(=O)C2=C(O)c3ccccc3S(=O)(=O)N2C)s1 [Meloxicam] | inactive: 0.676 |
| Cc1nnc(NS(=O)(=O)c2ccc(N)cc2)s1 [Sulfamethizole] | inactive: 0.339 |
| CCN1CCC[C@H]1CNC(=O)c1c(OC)ccc(Br)c1OC [Remoxipride Hydrochloride] | inactive: 1.06 |
| CCN1CCN(c2cc3c(cc2F)c(=O)c(C(=O)O)cn3C2CC2)CC1 [Enrofloxacin] | inactive: -0.838 |
| Cc1c(C(=O)NN2CCCCC2)nn(-c2ccc(Cl)cc2Cl)c1-c1ccc(Cl)cc1 [Rimonabant] | inactive: 0.84 |
| COc1cc2c(cc1OC)CC(=O)N(CCCN(C)C[C@H]1Cc3cc(OC)c(OC)cc31)CC2 [Ivabradine hydrochloride] | inactive: -0.402 |
| C[C@H]1c2cccc(O)c2C(=O)C2=C(O)[C@]3(O)C(=O)C(C(N)=O)=C(O)[C@@H](N(C)C)[C@@H]3[C@@H](O)[C@@H]21 [Doxycycline hydrochloride] | inactive: 0.0142 |
| Clc1ccc(C(Cn2ccnc2)OCc2ccsc2Cl)c(Cl)c1 (configuration not stated) [Tioconazole] | inactive: 0.517 |
| CCCC1C(=O)N2C(N(C)C)=Nc3ccc(C)cc3N2C1=O (configuration not stated) [Azapropazone] | inactive: 0.9 |
| C[C@](N)(Cc1ccc(O)c(O)c1)C(=O)O [Methyldopa (L,-)] | inactive: 1.67 |
| c1cnc(N2CCN(Cc3ccc4c(c3)OCO4)CC2)nc1 [Piribedil hydrochloride] | inactive: 0.421 |
| CCOC(=O)O[C@]1(C(=O)OCCl)CC[C@H]2[C@@H]3CCC4=CC(=O)C=C[C@]4(C)[C@H]3[C@@H](O)C[C@@]21C [Loteprednol etabonate] | inactive: -0.488 |
